# Measured values taken from paper PMC3519786, “Novel Interactions between FOXM1 and CDC25A Regulate the Cell Cycle” (PLoS ONE, 2012).
# Results are given in words; binding and its absence hold for the method and conditions named. Some entries that bind do so weakly or less than the wild type.
# T1: GAL4-FOXM1 T600A (human) (UniProt Q08050)
# T1 sequence: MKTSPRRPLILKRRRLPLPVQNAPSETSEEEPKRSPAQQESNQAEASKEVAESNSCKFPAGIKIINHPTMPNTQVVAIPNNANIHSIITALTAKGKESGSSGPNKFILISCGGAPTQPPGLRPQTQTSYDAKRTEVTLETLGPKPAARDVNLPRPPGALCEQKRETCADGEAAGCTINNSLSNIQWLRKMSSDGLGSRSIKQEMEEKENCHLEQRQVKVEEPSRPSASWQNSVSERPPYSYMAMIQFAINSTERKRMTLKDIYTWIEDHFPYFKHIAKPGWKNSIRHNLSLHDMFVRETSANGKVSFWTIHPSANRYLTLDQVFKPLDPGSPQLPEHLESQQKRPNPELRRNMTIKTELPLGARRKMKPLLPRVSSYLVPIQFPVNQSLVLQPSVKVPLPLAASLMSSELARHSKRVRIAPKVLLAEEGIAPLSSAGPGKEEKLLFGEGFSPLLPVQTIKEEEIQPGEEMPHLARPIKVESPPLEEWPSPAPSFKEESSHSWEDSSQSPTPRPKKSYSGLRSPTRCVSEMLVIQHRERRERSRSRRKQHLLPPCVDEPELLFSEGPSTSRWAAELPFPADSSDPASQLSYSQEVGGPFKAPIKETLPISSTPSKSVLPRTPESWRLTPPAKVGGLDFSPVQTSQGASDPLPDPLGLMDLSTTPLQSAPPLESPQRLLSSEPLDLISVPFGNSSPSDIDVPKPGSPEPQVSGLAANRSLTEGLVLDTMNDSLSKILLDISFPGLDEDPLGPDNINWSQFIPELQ
# T2: GAL4-FOXM1 L656A (human) (UniProt Q08050)
# T2 sequence: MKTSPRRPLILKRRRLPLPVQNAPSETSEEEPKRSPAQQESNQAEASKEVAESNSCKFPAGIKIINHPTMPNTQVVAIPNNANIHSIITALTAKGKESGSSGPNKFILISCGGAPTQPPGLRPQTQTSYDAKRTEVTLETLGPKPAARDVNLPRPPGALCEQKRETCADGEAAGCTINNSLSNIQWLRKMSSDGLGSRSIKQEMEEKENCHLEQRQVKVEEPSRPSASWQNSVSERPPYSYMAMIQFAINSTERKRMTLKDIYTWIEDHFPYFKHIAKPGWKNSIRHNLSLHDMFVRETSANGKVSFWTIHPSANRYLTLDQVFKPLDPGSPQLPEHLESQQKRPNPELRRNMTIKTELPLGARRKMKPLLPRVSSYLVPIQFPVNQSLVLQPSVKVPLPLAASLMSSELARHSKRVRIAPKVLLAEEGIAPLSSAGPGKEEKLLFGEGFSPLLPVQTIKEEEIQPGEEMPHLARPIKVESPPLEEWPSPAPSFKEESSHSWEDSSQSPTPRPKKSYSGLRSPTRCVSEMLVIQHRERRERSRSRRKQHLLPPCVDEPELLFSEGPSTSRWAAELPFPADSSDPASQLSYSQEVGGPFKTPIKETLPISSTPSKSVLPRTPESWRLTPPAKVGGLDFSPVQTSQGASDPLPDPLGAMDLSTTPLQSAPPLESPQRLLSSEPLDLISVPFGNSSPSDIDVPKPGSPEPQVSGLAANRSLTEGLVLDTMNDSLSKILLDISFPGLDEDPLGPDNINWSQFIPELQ
# T3: GAL4-FOXM1 WHD fragment (amino acids 236-329) (human) (UniProt Q08050)
# T3 sequence: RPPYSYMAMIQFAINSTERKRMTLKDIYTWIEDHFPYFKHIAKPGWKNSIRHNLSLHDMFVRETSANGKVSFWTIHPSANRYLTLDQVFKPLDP
# T4: GAL4-FOXM1 T600A/T611A/T620A (human) (UniProt Q08050)
# T4 sequence: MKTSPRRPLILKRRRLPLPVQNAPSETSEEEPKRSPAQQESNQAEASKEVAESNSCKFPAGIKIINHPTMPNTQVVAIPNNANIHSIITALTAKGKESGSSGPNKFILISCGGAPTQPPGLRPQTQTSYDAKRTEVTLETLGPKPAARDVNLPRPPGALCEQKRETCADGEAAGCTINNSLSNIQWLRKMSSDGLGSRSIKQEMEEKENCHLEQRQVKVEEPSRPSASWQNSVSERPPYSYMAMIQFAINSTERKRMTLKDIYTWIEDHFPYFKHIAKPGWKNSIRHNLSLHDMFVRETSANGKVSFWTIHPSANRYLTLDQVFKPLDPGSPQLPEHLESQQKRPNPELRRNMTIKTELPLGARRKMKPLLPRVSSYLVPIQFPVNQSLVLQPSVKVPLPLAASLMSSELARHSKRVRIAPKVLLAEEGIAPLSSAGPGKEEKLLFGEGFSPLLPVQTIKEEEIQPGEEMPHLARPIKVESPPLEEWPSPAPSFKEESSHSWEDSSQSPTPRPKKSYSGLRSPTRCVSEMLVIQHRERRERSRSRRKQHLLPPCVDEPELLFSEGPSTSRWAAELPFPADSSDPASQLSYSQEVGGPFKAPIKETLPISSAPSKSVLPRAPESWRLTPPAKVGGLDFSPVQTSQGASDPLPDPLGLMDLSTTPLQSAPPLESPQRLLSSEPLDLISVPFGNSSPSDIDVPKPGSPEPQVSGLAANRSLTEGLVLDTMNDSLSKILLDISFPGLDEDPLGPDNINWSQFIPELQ
# How the values were obtained:
# Test in all cases: two-hybrid; mammalian two-hybrid (Checkmate, Promega) in U2OS; bait pBIND (GAL4 DNA-binding domain)-FOXM1, prey pACT (VP16 activation domain)-CDC25A, reporter pG5-luc; firefly normalised to Renilla luciferase; 2 days
# GAL4-FOXM1 T600A (human) = target: T1, GAL4-FOXM1 T600A (human)
# GAL4-FOXM1 L656A (human) = target: T2, GAL4-FOXM1 L656A (human)
# [1] = target: T3, GAL4-FOXM1 WHD fragment (amino acids 236-329) (human)
# [2] = target: T4, GAL4-FOXM1 T600A/T611A/T620A (human)
binder,measurement,setting,value
"VP16-CDC25A (natural protein, UniProt P30304 1-524, looked up, CDC25A (cell division cycle 25A) dual phosphatase; plasmid bought from Origene; also called pACT-CDC25A; wild-type CDC25A; source: mammalian two-hybrid fusion, U2OS, transfected) MELGPEPPHRRRLLFACSPPPASQPVVKALFGASAAGGLSPVTNLTVTMDQLQGLGSDYEQPLEVKNNSNLQRMGSSESTDSGFCLDSPGPLDSKENLENPMRRIHSLPQKLLGCSPALKRSHSDSLDHDIFQLIDPDENKENEAFEFKKPVRPVSRGCLHSHGLQEGKDLFTQRQNSAPARMLSSNERDSSEPGNFIPLFTPQSPVTATLSDEDDGFVDLLDGENLKNEEETPSCMASLWTAPLVMRTTNLDNRCKLFDSPSLCSSSTRSVLKRPERSQEESPPGSTKRRKSMSGASPKESTNPEKAHETLHQSLSLASSPKGTIENILDNDPRDLIGDFSKGYLFHTVAGKHQDLKYISPEIMASVLNGKFANLIKEFVIIDCRYPYEYEGGHIKGAVNLHMEEEVEDFLLKKPIVPTDGKRVIVVFHCEFSSERGPRMCRYVRERDRLGNEYPKLHYPELYVLKGGYKEFFMKCQSYCEPPSYRPMHHEDFKEDLKKFRTKSRTWAGEKSKREMYSRLKKL",binding,GAL4-FOXM1 T600A (human),binds
same,binding,GAL4-FOXM1 L656A (human),binds
same,binding,[1],no binding
same,binding,[2],binds
